# Measured values as given in the supplement of paper PMC6135742.
# Structures can show the parent of a compound that is named as a salt. ± gives the standard deviation of the averaged measurements. The full ranking holds about 2,600 compounds; the median of “MBP+ mature oligodendrocyte number relative to DMSO vehicle control” is about -0.34, and the highest 2% start at about 13. This is one part of the list.
# System: jimpy (Plp1 jimpy) mouse iPSC-derived oligodendrocyte progenitor cells
# Test: MBP+ mature oligodendrocyte number relative to DMSO vehicle control (SDs above negative control mean); higher = more surviving jimpy oligodendrocytes (rescue)
# Conditions: 10 µM; 3 days
# 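Also: 10 µM single dose with 3-day oligodendrocyte differentiation.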
row,SMILES,MBP+ mature oligodendrocyte number
1,Nc1ccc(N2C(=O)c3ccccc3C2=O)c(Cl)c1 [N-(4-Amino-2-chlorophenyl)phthalimide],0.0777
2,CCN(CC)CCOC(=O)c1ccc(N)cc1 [Procaine hydrochloride],1
3,CCN(CC)CCOC(=O)c1ccc(N)cc1 [Procaine HCl],2.35
4,Clc1ccc(C(Cn2ccnc2)OCc2ccc(Sc3ccccc3)cc2)c(Cl)c1 (stereo not drawn) [Fenticonazole Nitrate],7.99
5,CC[C@H](C)C(=O)O[C@H]1C[C@@H](C)C=C2C=C[C@H](C)[C@H](CC[C@@H]3C[C@@H](O)CC(=O)O3)[C@H]21 [Lovastatin],-4.43
6,NC1CCN(O)C1=O (racemic),-0.197
7,COc1cccc2cc(-c3nc([C@H]4CC[C@H](C(=O)O)CC4)n4ncnc(N)c34)[nH]c12,-5.93
8,O=C1CCC[C@@H]2[C@H]3CCC[N+]4([O-])CCC[C@@H](CN12)[C@@H]34 (stereo partly drawn) [Oxymatrine],-1.17
9,CC(=O)N[C@@H](CS)C(=O)O [Acetylcysteine],-0.107
10,CC(=O)N[C@@H](CS)C(=O)O [N-Acetyl-L-Cysteine],-0.0401
11,C[C@]1(c2nc3c(C(N)=O)cccc3[nH]2)CCCN1 [Veliparib (ABT-888)],1.85
12,O=C(O)Cc1cccc(OCCCN(Cc2cccc(C(F)(F)F)c2Cl)CC(c2ccccc2)c2ccccc2)c1,24.5
13,"O=c1cc(-c2ccccc2)[nH]c2nc(Cl)ccc12 [7-Chloro-4-hydroxy-2-phenyl-1,8-naphthyridine]",-0.119
14,O=c1[nH]c(=O)c2nc3ccccc3nc2[nH]1 [Alloxazine],-1.41
15,CC(=O)O[C@H]1C[C@@]2(C)[C@@H](C[C@@H](O)[C@H]3[C@@]4(C)CC[C@@H](O)[C@@H](C)[C@@H]4CC[C@@]32C)/C1=C(\CCC=C(C)C)C(=O)O [Fusidic acid sodium],1.08
16,O=c1[nH]c2cc(C(F)(F)F)ccc2n1-c1cc(C(F)(F)F)ccc1O,-1.11
17,COc1cc(C2Oc3cc([C@H]4Oc5cc(O)cc(O)c5C(=O)[C@@H]4O)ccc3OC2CO)ccc1O (stereo partly drawn) [Silibinin],0.675
18,COc1cc(C2Oc3cc([C@H]4Oc5cc(O)cc(O)c5C(=O)[C@@H]4O)ccc3OC2CO)ccc1O (stereo partly drawn) [Silymarin],-0.22
19,O=c1cc(-c2ccccc2)oc2cc(O)c(O)c(O)c12 [Baicalein],-2.74
20,N[C@@H](CCCC(=O)O)C(=O)O [L-2-aminoadipic acid],-0.119
21,CNC[C@H](O)[C@@H](O)[C@H](O)[C@H](O)CO [Meglumine],1.42
22,COC(=O)N[C@H](C(=O)N[C@@H](Cc1ccccc1)[C@@H](O)CN(Cc1ccc(-c2ccccn2)cc1)NC(=O)[C@@H](NC(=O)OC)C(C)(C)C)C(C)(C)C [Atazanavir Sulfate],-1.72
23,CCCCCCCCCC[Si](C)(C)CCC(=O)NC(Cc1ccc(C)cc1)c1ccccc1 (stereo not drawn) [Sandoz 58-035],1.88
24,COC(=O)Nc1ccc(-c2nc(N3CCOCC3)c3cnn(C4CCN(C(=O)OC)CC4)c3n2)cc1,-6.61
25,COCc1nc2c([nH]1)c(=O)n(C)c(=O)n2CC(C)C [8-Methoxymethyl-3-isobutyl-1-methylxanthine],-0.637
26,Cc1ccnc(NS(=O)(=O)c2ccc(N)cc2)n1 [Sulfamerazine],0.104

row,SMILES,MBP+ mature oligodendrocyte number
1,NC(=O)OCC(COC(N)=O)c1ccccc1 [Felbamate],1.43 ± 0.39
2,CCC[S+]([O-])c1ccc2[nH]c(NC(=O)OC)nc2c1 (stereo not drawn) [Albendazole Oxide],2.05
3,"CCCCS(=N)(=O)CCC(N)C(=O)O (racemic) [DL-Buthionine-[S,R]-sulfoximine]",-0.472
4,CCCCS(=N)(=O)CCC(N)C(=O)O (racemic) [L-Buthionine-sulfoximine],0.392
5,CC(C)n1c(/C=C/C(O)CC(O)CC(=O)O)c(-c2ccc(F)cc2)c2ccccc21 (stereo not drawn) [Fluvastatin Sodium],-4.97
6,O=c1ccn([C@@H]2O[C@H](CO)[C@@H](O)[C@H]2O)c(=O)[nH]1 [Uridine],-1.28
7,CC(C)(C)c1ccc(C(=O)CCCN2CCC(OC(c3ccccc3)c3ccccc3)CC2)cc1 [Ebastine],-5.41 ± 1.3
8,CCCCNc1cc(C(=O)O)cc(S(N)(=O)=O)c1Oc1ccccc1 [Bumetanide],0.63 ± 5.6
9,C[C@H](Cn1cnc2c(N)ncnc21)OCP(=O)(O)O [Tenofovir],1.16
10,Fc1ccc2[nH]c(CN3CCN(c4ccccn4)CC3)cc2c1,-1.89
11,C[C@H]1O[C@@H](n2cc(F)c(=O)[nH]c2=O)[C@H](O)[C@@H]1O [5-fluoro-5'-deoxyuridine],-0.491
12,C[C@H]1O[C@@H](n2cc(F)c(=O)[nH]c2=O)[C@H](O)[C@@H]1O [Doxifluridine],-0.197
13,C[n+]1cccc(C(N)=O)c1 [1-Methylnicotinamide chloride],-0.176
14,CC(C)(C)c1nc(-c2cccc(NS(=O)(=O)c3c(F)cccc3F)c2F)c(-c2ccnc(N)n2)s1,1.45
15,Clc1ccc(C(c2ccc(Cl)cc2)[n+]2ccn(CC(OCc3ccc(Cl)cc3Cl)c3ccc(Cl)cc3Cl)c2)cc1 (stereo not drawn) [Calmidazolium chloride],< -3.34
16,O=c1c(-c2ccc(O)cc2)coc2cc(O)ccc12 [Daidzein],2.34 ± 0.28
17,CC(C)NC[C@H](O)COc1cccc2ccccc12 [(S)-Propranolol hydrochloride],-0.39
18,CC1(C)CC[C@]2(C(=O)O)CC[C@]3(C)C(=CC[C@@H]4[C@@]5(C)CC[C@H](O)C(C)(C)[C@@H]5CC[C@]43C)[C@@H]2C1 [Oleanolic Acid],-0.612
19,O=C(O)CCCCC(CCSCc1ccccc1)SCc1ccccc1 (stereo not drawn),2.25
20,CC(=O)CCCCn1c(=O)c2c(ncn2C)n(C)c1=O [Pentoxifylline],0.696
21,Nc1c(CC(=O)O)cccc1C(=O)c1ccc(Br)cc1 [Bromfenac Sodium],5.22
22,OCCN1CCN(CCCN2c3ccccc3C=Cc3ccccc32)CC1 [Opipramol dihydrochloride],-0.59
23,O=C(O)C=C1CCCc2ccccc2C1O (stereo not drawn),-0.167
24,COc1cccc(Nc2c(C(N)=O)cnc3c(C)cc(S(=O)(=O)c4cccc(C(=O)N(C)C)c4)cc23)c1,7.8
25,CN(C)CCOc1ccc(-c2nc(-c3ccncc3)c(-c3ccc4c(c3)CC/C4=N\O)[nH]2)cc1,< -4.81
26,CCCC(CCC)C(=O)O[C@H]1C[C@H]2CC[C@@H](C1)[N+]2(C)C [Anisotropine methyl bromide],32.5

row,SMILES,MBP+ mature oligodendrocyte number
1,C[C@H](Cc1cc2c(c(C(N)=O)c1)N(CCCO)CC2)NCCOc1ccccc1OCC(F)(F)F [Silodosin],< -5.15
2,C/C(=C\C(=O)Nc1ccccc1C(=O)O)c1ccc2ccccc2c1,-0.502
3,O=C(c1ccc(/C=C/c2n[nH]c3ccccc23)cc1)N1CCNCC1,-4.7
4,Cc1cc(Cl)ccc1OCCCC(=O)NO [Droxinostat],-1.14 ± 0.66
5,O=C(NCCN1CCOCC1)c1ccc(Cl)cc1,2.56
6,O=C(NCCN1CCOCC1)c1ccc(Cl)cc1 [Moclobemide],0.304
7,Cc1ccc(-n2sc(=O)n(Cc3ccc(F)cc3)c2=O)cc1,1.37
8,COc1c(C)c2c(c(O)c1C/C=C(\C)CCC(=O)O)C(=O)OC2 [Mycophenolic acid],< -4.81
9,O=C(Oc1ccccc1C(=O)O)c1ccccc1O [Sasapyrine],1.59
10,CS(=O)(=O)c1ccc(-c2cnc(N)c(C(=O)Nc3ccccc3)n2)cc1,-3.62
11,NS(=O)(=O)c1cc(Cl)c(Cl)c(S(N)(=O)=O)c1 [Dichlorphenamide],-0.108
12,O=C(O)C1=CO[C@@H](O[C@@H]2O[C@H](CO)[C@@H](O)[C@H](O)[C@H]2O)[C@@H]2C(CO)=CC[C@H]12 [Geniposidic acid],0.171
13,Cc1cc(Cn2cnc3c2C[C@@H](C(=O)O)N(C(=O)C(c2ccccc2)c2ccccc2)C3)ccc1N,-2.99
14,CCCCCCC(=O)OC1CC(C)(C)NC(C)(C)C1 [TMPH hydrochloride],1.64
15,Oc1cc2c(cc1O)CN(C(=S)NCCc1ccc(Cl)cc1)CCC2 [Capsazepine],< -4.47
16,Nc1nc(Cl)nc2c1ncn2[C@@H]1O[C@H](COP(=O)(O)OP(=O)(O)OP(=O)(O)O)[C@H](O)C1O (stereo partly drawn) [2-Chloroadenosine triphosphate tetrasodium],-0.282
17,CN(C)Cc1cccc(N=C(c2ccccc2)c2c(O)[nH]c3cc(C(=O)N(C)C)ccc23)c1,-4.61
18,NC[C@@H](O)c1ccc(O)c(O)c1 [L(-)-Norepinephrine bitartrate],0.667
19,COc1ccc2c(c1)c(CC(=O)N1CCOCC1)c(C)n2C(=O)c1ccc(Cl)cc1,1.06
20,CNCCCC12CCC(c3ccccc31)c1ccccc12 [Maprotiline HCl],< -4.81
21,CNCCCC12CCC(c3ccccc31)c1ccccc12 [Maprotiline hydrochloride],< -3.97
22,CCc1c(O)cc(O)c(C(=O)c2ccc(OCCN3CCOCC3)c(OC)c2)c1CC(=O)N(CCOC)CCOC,< -6.01
23,CC[C@H]1OC(=O)C[C@@H](O)[C@H](C)[C@@H](O[C@@H]2O[C@H](C)[C@@H](O)[C@H](N(C)C)[C@H]2O)[C@@H](CCN2C[C@H](C)C[C@H](C)C2)C[C@@H](C)C(=O)/C=C/C(C)=C/[C@@H]1CO[C@@H]1O[C@H](C)[C@@H](O)[C@@H](OC)[C@H]1OC [Tilmicosin],-5.51
24,O=C1Cc2c([nH]c3ccc(Br)cc23)-c2ccccc2N1 [Kenpaullone],-1.42
25,Cc1coc2c1C(=O)C(=O)c1c-2ccc2c1CCCC2(C)C [Tanshinone IIA],0.451
26,C[C@]12C=CC(=O)C=C1CC[C@H]1[C@@H]3C[C@@H](O)[C@](O)(C(=O)CO)[C@@]3(C)C[C@H](O)[C@@]12F [Triamcinolone],-0.75 ± 2.8
